Test results: article PMC4336329 (PLoS ONE, 2015)
The campaign covered roughly 310,000 compounds. About 14,000 (4.5%) showed an effect of 50% or more. The effect is printed as a negative number. The list shows a part of the results.

biological target: human ether-à-go-go-related gene (hERG) potassium channel (human, UniProt Q12809); experiment: primary screen, population patch clamp on CHO cells stably expressing hERG
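Further: peak tail current of the secondary pulse compared with the same well before compound.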

human ether-à-go-go-related gene (hERG) potassium channel, sequence (Q12809 whole entry, looked up): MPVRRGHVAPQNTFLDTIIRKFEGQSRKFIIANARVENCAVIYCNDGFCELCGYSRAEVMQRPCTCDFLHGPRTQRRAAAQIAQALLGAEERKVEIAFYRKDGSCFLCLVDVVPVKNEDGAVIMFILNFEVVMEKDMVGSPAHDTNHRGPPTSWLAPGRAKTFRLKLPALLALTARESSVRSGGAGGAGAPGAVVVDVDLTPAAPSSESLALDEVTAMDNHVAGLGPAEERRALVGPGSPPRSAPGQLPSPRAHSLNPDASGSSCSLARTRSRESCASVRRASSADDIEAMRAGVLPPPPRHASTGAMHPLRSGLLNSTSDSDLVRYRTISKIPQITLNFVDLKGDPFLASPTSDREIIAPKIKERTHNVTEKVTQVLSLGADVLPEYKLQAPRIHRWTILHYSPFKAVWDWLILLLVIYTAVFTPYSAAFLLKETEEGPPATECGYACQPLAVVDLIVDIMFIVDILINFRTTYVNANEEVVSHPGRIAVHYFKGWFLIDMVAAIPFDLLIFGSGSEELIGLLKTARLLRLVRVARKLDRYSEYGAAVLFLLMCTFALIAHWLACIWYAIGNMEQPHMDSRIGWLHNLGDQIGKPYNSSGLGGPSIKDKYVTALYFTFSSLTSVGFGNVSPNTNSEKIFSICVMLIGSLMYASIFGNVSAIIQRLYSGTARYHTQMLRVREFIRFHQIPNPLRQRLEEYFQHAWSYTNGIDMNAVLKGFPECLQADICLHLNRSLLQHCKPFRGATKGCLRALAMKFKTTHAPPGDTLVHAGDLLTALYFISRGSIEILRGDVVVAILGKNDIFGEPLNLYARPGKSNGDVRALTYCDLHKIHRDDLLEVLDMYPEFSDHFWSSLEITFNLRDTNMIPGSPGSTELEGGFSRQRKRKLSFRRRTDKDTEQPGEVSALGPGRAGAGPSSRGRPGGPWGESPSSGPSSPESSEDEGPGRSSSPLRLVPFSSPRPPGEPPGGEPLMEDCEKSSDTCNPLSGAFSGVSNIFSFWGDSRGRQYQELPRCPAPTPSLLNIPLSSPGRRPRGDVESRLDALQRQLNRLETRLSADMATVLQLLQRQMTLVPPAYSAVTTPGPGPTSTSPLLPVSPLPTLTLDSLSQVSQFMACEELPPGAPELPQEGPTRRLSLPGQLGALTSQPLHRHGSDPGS

SMILES	hERG current change (%, negative = inhibition) at 10uM [%]
Cc1cc(C)c(C)c(S(=O)(=O)N2CCN(C(=S)NCC3CCCO3)CC2)c1C (centres unmarked)	12.2
O=C(c1ccncc1)N1CCN(C(=O)c2ccncc2)CC1	12
Cc1ccc(NC2CCCN(C(=O)c3cn(C)c4ccccc34)C2)cc1C (centres unmarked)	-37.2
O=C(CSCCO)Nc1nccs1	0.403
CN1C(=O)/C(=C/c2ccc(OCc3ccccc3F)cc2)N(C)C1=S	19.5
O=c1cc(Cl)[nH]c(=O)n1Cc1ccccc1	21.9
Cc1cccc(NC(=O)NNC(=O)c2sccc2-n2cccc2)c1	21.6
COc1ccccc1CNS(=O)(=O)c1ccc2c(c1)CC(=O)N2C	-6.11
O=C(COc1ncnc2ccccc12)Nc1ccc(Cl)c([N+](=O)[O-])c1	-7.85
Cn1c(=O)c2sccc2n(Cc2cccc(Br)c2)c1=O	-0.501
Cc1cc(NC(=O)COC(=O)CCNS(=O)(=O)c2c(Cl)cccc2Cl)no1	-6.95
CC(C)Oc1ccc(CCC(=O)NNC(=S)NCc2ccccc2)cc1	4.51
CC(=O)C(Sc1nnnn1-c1ccccc1)C(C)=O	18
COc1cc(Br)cc(CN2CCN(c3ncccn3)CC2)c1O	9.04
CCCCC(=O)Nc1cc(OC)c(NC(=S)NC)cc1OC	48.4
COc1cccc(C2/C(=C(\O)c3ccc(OC)c(OC)c3)C(=O)C(=O)N2c2cc(C)on2)c1 (centres unmarked)	7.85
COc1ccccc1CCNC(=O)CCn1nc(C)c2c(C)n(-c3ccccc3)nc2c1=O	0.155
O=c1ccc(-c2ccc(S(=O)(=O)N3CCN(c4cccc(Cl)c4)CC3)o2)n[nH]1	10
Cn1c(CO)cnc1SCC(=O)c1ccc(Cl)cc1	11.3
CC(C)CCNc1cc(=O)n(C)c(=O)n1C	4.5
CSC1=NP(=S)(SC)N(C)c2nc3n(c21)CCC3 (centres unmarked)	-4.71
CC(=O)c1ccccc1NC(=O)COC(=O)/C=C/c1cccs1	11.7
O=C(NCC1CCCCC1)c1ccc(Cl)c(S(=O)(=O)N2CCOCC2)c1	-39.3

SMILES	hERG current change (%, negative = inhibition) at 10uM [%]
O=C(/C(=C/O)N=Nc1ccccc1)c1ccc(Cl)cc1	11.7
Cc1c(C)c2c(OCC(=O)O)cc3c(c2oc1=O)CCC(C)(C)O3	19.6
CCOc1cccc(/C(O)=C2/C(=O)C(=O)N(CCOC)C2c2ccncc2)c1 (centres unmarked)	9.53
COc1cc(OC)cc(C(=O)N[C@H](C(=O)OCC(=O)NC(=O)c2cccn2C)C(C)C)c1	7.96
Cc1cccc(NC(=O)N2CCCCCC2)c1	-8.87
O=C(NCc1ccco1)C(c1ccc(F)cc1)N(Cc1cccnc1)C(=O)Cn1nnc2ccccc21 (centres unmarked)	-17.6
CC(C)c1ccc2nc(NC(=O)C3CC3)sc2c1	-55
N#C/C(=C/c1cccc(C(F)(F)F)c1)c1nc(CCN2C(=O)c3ccccc3C2=O)cs1	-0.904
CC(CC(=O)N1CCc2ccccc21)n1cccn1 (centres unmarked)	6.25
O=C(Cn1cccc1C(=O)c1ccccc1)NCc1ccccc1	3.9
CC(C)CC(=O)Nc1c2c(nn1-c1ccc(F)cc1)CS(=O)(=O)C2	8.51
Cc1cc(-c2nnc3sc(C4CCCCC4)nn23)n[nH]1	-16.4
COc1ccc(/C(=N\Nc2ccccc2C(=O)O)c2ccccc2)cc1	0.149
O=C(NCCCN1CCOCC1)C1(c2ccccc2)CCCC1	15.9
Cc1ccccc1NC(=O)COC(=O)CCc1ccccc1	15.7
Cc1cc(C)c(C(=O)COC(=O)C2CC3CCCC(C2)C3=O)c(C)c1 (centres unmarked)	-9.23
CCCCc1[nH]c(=O)c(C#N)c2c1CCCC2	1.62
COc1ccccc1N1CCN(C(=O)NCc2cccc(C(F)(F)F)c2)CC1	-23.6
COCCNC(=O)CCCN1C(=O)c2ccccc2Sc2ncccc21	20.9
CC(=O)c1ccc(N2CCN(S(=O)(=O)c3ccc4c(c3)NC(=O)CC(=O)N4)CC2)cc1	13.4
CCOC(=O)N1CCN(C(=O)Cn2c(=O)sc3ccccc32)CC1	4.02
S=C(Nc1ccc(Cl)cc1)NC1CCN(Cc2ccccc2)CC1	-39.9
CC(C)CCNC(=O)CN(C(=O)CCC(=O)Nc1nccs1)C1CCCCC1	-5.84

SMILES	hERG current change (%, negative = inhibition) at 10uM [%]
Cc1ccc(N=c2ssnc2Cl)cc1	17.5
COc1cc(CN2CCN(c3cccc(C)c3C)CC2)cc(Br)c1O	-12.6
Cc1ccc(Nc2ccc(C(=O)N3CCCC3)cn2)c(C)c1	-4.75
COc1ccc(NS(=O)(=O)c2ccc3oc(SC)nc3c2)cc1	-2.22
CCCCC(NC(=O)Cc1c(C)c2cc3c4c(oc3c(C)c2oc1=O)CCCC4)C(=O)O (centres unmarked)	3.35
CC1c2ccsc2CCN1C(=O)NC(=O)c1ccc(Cl)cc1 (centres unmarked)	5.59
CC12CCC(C(=O)NCCCN3CCOCC3)(OC1=O)C2(C)C (centres unmarked)	13.9
Cl.O=C(O)c1cccc(Nc2nc(-c3cccnc3)nc3ccccc23)c1	4.75
O=C(COc1ccccc1)NCC(=O)Nc1ccncc1	1.26
NC1=NC[C@H](c2ccccc2)N1CC1CCCCC1	-0.543
CCOC(=O)Cc1csc(NC(=O)c2ccc(Cl)s2)n1	-1.6
CN1CCC(N(C)C(=O)CCc2nc3ccccc3c(=O)[nH]2)CC1	8.31
CCOC(=O)Cc1csc(N/N=C/c2ccccc2)n1	-5.17
COc1cc2c(cc1OC)CN(Cc1ccc(OC)c(C)c1OC)CC2	-43.6
COc1ccc(OC)c(C2CC(=O)N3CN(c4ccc(C)c(Cl)c4)CSC3=C2C#N)c1 (centres unmarked)	19.4
O=C1OC(N2CCN(c3ccccn3)CC2)c2ccccc21 (centres unmarked)	6.7
O=C(NNC(=O)C1CC1)c1cccc([N+](=O)[O-])c1	1.1
O/C=c1\ccc2cccc3nc(C(F)(F)F)nc1c23	10.1
CCOC(=O)C1CCCN(S(=O)(=O)c2ccc3c4c2CC(=O)N4CC(C)S3)C1 (centres unmarked)	-0.356
NNC(=O)C(=O)Nc1ccc(O)cc1	10.3
FC(F)(F)c1nnc(-c2ccccc2)nc1Sc1ccc(Cl)cc1	20.1
O=C(CSc1nnc(-c2ccccn2)o1)Nc1cccc(Cl)c1	8.36
Cc1ccc(C2=NN(CCC(=O)NCCCN3CCOCC3)C(=O)CC2)cc1	-52.3

SMILES	hERG current change (%, negative = inhibition) at 10uM [%]
CC1(C)Cc2c(c(N3CCOCC3)nc3sc4c(NCc5ccco5)nnnc4c23)CS1	8.33
OCCNc1ncnc2c1cnn2Cc1ccccc1	15.9
CCCc1cc(=O)oc2c(C)c3occ(C)c3cc12	-2.29
CC(=O)N1CCN(C(=O)/C(C#N)=C/c2ccc3c(c2)OCO3)CC1	23.8
CCCCOCCCNC(=O)N[C@@H](CCSC)C(=O)OC	16.3
Cc1cc(OC(=O)c2c(F)cc(F)cc2F)nc(C)n1	11.2
COc1cccc(NC(=O)Nc2cc(C(=O)O)ccc2C)c1	15.3
CC1(C)CC(=O)C=C(NNC(=O)OC(C)(C)C)C1	1.99
COCCN1C(=O)C(=O)/C(=C(/O)c2ccc(S(=O)(=O)N3CCOCC3)cc2)C1c1cccc(Cl)c1 (centres unmarked)	1.38
COc1ccc(NC(=O)CN(C)C(=O)C2CC(=O)N(c3ccc4c(c3)OCCO4)C2)cc1 (centres unmarked)	1.96
COc1ccc(CCNC(=O)c2ccc3c(c2)N(Cc2ccc(F)cc2)CCS3)c(OC)c1	3.96
Cc1cc(-c2nnc(SCC(=O)Nc3ccc(C(F)(F)F)cc3)n2C)no1	17.8
Cc1ccc(S(=O)(=O)N(CCC(=O)NCc2ccccc2F)c2ccccc2)cc1	-33
COc1ccc2c(c1)OC[C@H]1[C@H]2N2C(=O)CN(Cc3ccc(Cl)cc3)C(=O)[C@@]2(C)[C@H]1c1ccccc1	6.5
CC1(C)CC(NC(=O)c2ccccn2)CC(C)(C)N1O.Cl	11.8
COC(=O)c1cc(OC)c(OC)cc1NC(=O)CCNC(=O)c1ccco1	15.3
Cc1c(Cl)cccc1NC(=O)CNc1cccc(S(=O)(=O)N(C)C)c1	-10.1
CCC(C)Sc1cccc(-c2nc3cc(C)ccn3c2NCc2ccccc2)c1.O=C(O)C(F)(F)F (centres unmarked)	4.02
Cc1ccc(NCc2ccccc2O)cc1	6.73
CCOC(=O)C1CCN(c2c(Nc3cc(C)cc(C)c3)c(=O)c2=O)CC1	-29.1
COc1ccccc1Nc1nnc(SCC2CCCCO2)s1 (centres unmarked)	-30.8
O=C(Cn1cc([N+](=O)[O-])cn1)N1CCN(c2ccccc2)CC1	7.25
O=C(CN(Cc1ccccc1)C(=O)c1csnn1)NCc1ccccc1	8.5
